According to PubChem BioAssay AID760 (NMMLSC, 2007):
The whole screen tested about 190,000 compounds, of which about 360 (0.19%) were called active. Inconclusive means that the source gave no clear call. Such entries were picked first, then a sample of the others.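 The calls were made as follows: active = GTP binding activity at least 20 points away from 100%, either lowered or raised; inconclusive = signal likely due to the compound's own green fluorescence; inactive = the rest.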

Each compound was assayed against Ras-related protein Rab-2A (Canis lupus familiaris) (UniProt P61105) (assay: Rab2 wt fluorescent GTP binding changes, either direction – biochemical, dog, bead-based flow cytometry, multiplex, primary screen (AID 760;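 also: 0% = beads with excess unlabeled GTP and 100% = no-compound control corrected for plate trend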)). Settings: GST-Rab2 wt beads, Bodipy-GTP binding, at 10 µM.

Compound	GTP binding activity
Cc1noc(/C=C/c2ccc(-c3ccccc3Cl)o2)c1[N+](=O)[O-]	inconclusive: 128%
CCSc1nc2ccc(C)cc2cc1C#N	inconclusive: 96%
COc1ccc(OC)c(C(=O)CN2C(=O)NC(C)(c3ccccc3)C2=O)c1 (centres undefined)	inconclusive: 107%
O=C(Nc1nccs1)c1ccc(NC(=O)C2CC=CCC2C(=O)O)cc1 (centres undefined)	inactive: 89%
Cc1ccc(Nc2c(F)c(F)c(F)c(F)c2C(=O)O)c(C)c1	active: 131% [activator]
COc1ccc2c(Cl)c(-c3nnco3)sc2c1	inconclusive: 92%
CN(CC1COc2ccccc2O1)C(=O)c1ccc(N(C)C)cc1 (centres undefined)	inconclusive: 93%
O=C(COC(=O)c1ccccc1NC(=O)c1ccco1)NC1CCS(=O)(=O)C1 (centres undefined)	inconclusive: 92%
COC(=O)C1=C(C)NC(=O)/C1=C\c1cc(C)n(-c2ccccc2C)c1C	inactive: 100%
Cc1nn(C)c(C(=O)Nc2ccc(S(=O)(=O)NC34CC5CC(CC(C5)C3)C4)cc2)c1Br	inactive: 94%
COc1ccc2cc(C#N)c(SCC(=O)N3CCCC3)nc2c1	inconclusive: 93%
COc1ccc(-c2nn3c(-c4ccco4)nnc3s2)cc1OC	active: 71%
Cc1cccc(C(=O)Nc2ccc(CC(=O)O)cc2)c1	inconclusive: 93%
COCCn1cc(C(=O)NCCCN2CCC(C)CC2)c2c3ccccc3n(C)c2c1=O	inconclusive: 111%
CCOC(=O)c1sc2nc(-c3cccnc3)ccc2c1N	inconclusive: 93%
O=C(N/N=C/c1ccc(COc2ccc(Br)cc2)o1)c1ccco1	inconclusive: 68%
O=S(=O)(CC(CN1CCCCC1)N1CCCCC1)c1ccc2ccccc2c1 (centres undefined)	inactive: 97%
Cc1c(C)n(CC(O)CN2CCOCC2)c2ccccc12 (centres undefined)	inconclusive: 102%
CC(C)C(=O)n1nc(-c2cccnc2)nc1NCc1ccc(F)cc1	inconclusive: 97%
COc1ccccc1N1CCN(c2ccc(Cl)nn2)CC1	inconclusive: 94%

Compound	GTP binding activity
Cc1ccc(-n2[nH]c(C)c(C=Nc3ccc(Br)cn3)c2=O)cc1	inactive: 97%
Cc1cc([N+](=O)[O-])ccc1N=Nc1c(N)[nH]n(-c2ccccc2)c1=O	inactive: 90%
CCOC(=O)c1c(NC(=O)c2cccs2)sc(C(=O)N(C)C)c1C	inconclusive: 108%
Cc1cc(C)cc(NC(=O)C(=S)NCc2ccccc2)c1	inactive: 94%
COc1cccc(CN2CCC(C(=O)N3CCN(c4ccccc4F)CC3)CC2)c1OC	inconclusive: 105%
Cc1cc(C(=O)N/N=C/c2cc(Br)ccc2OC(=O)c2ccc(Br)cc2)n[nH]1	inconclusive: 99%
COC(=O)[C@H]1C2CCC(C(=O)OC)(CC2)[C@H]1C(=O)OC	inconclusive: 103%
Cc1ccc(N=Nc2c(N)nn3c(N)c(C#N)c(C)nc23)cc1	inconclusive: 90%
OCC1(Cc2ccccc2)CCCN(Cc2ccn[nH]2)C1 (centres undefined)	inactive: 98%
Cc1noc(NS(=O)(=O)c2ccc(NC(=O)CCN3C(=O)c4ccccc4C3=O)cc2)c1C	inconclusive: 91%
Cn1c(=O)c2c(nc(N3CCCCCC3)n2CC(=O)c2ccc(Br)cc2)n(C)c1=O	inconclusive: 103%
COc1ccc2[nH]c3c(=O)n4c(nc3c2c1)SCCC4	inconclusive: 93%
Cc1nnsc1C(=O)NNS(=O)(=O)c1ccccc1	inconclusive: 106%
Cc1ccc(/C=N/n2c(COc3ccccc3)n[nH]c2=S)o1	inconclusive: 92%
Cc1ccc2c(c1)NC(=O)C(CC(=O)NCCN(C)C)O2 (centres undefined)	inconclusive: 104%
N#CC(C#N)=C1C=C2C=C(N3CCCCCC3)CCC2CC1 (centres undefined)	inconclusive: 122%
O=C(Nc1nnc(CC(=O)N2CCOCC2)s1)C1COc2ccccc2O1 (centres undefined)	inconclusive: 99%
O=S(=O)(NCc1ccccc1)c1ccc(S(=O)(=O)N2CCCC2)cc1	inactive: 100%
Cn1nnc2cc(NC(=O)N3CC4(C)CC3CC(C)(C)C4)ccc21 (centres undefined)	inconclusive: 101%
CCOC(=O)c1c(C)oc(NC(=O)COc2ccc(Cl)cc2C)c1C#N	inactive: 97%

Compound	GTP binding activity
CC(=O)NC(=S)Nc1ccccc1F	inconclusive: 97%
COc1ccccc1C(=O)N(CN1CCCC1=O)c1cccc(Cl)c1	inconclusive: 106%
Fc1cc(F)c2nc(Nc3nc4cc5c(cc4s3)OCO5)sc2c1	inconclusive: 90%
COCc1c(C)cc(C)c(/C=N/O)c1C	inactive: 97%
O=C(COC(=O)/C=C/c1ccc2c(c1)OCO2)Nc1ccc(S(=O)(=O)N2CCCC2)cc1	inconclusive: 91%
O=C(c1cccc(C(=O)N2CCN(c3ncccn3)CC2)c1)N1CCN(c2ncccn2)CC1	inconclusive: 110%
C/C(=N\Nc1ccc(S(N)(=O)=O)cc1[N+](=O)[O-])c1ccc2c(c1)OCO2	inactive: 85%
CCOC(=O)C(NC(=O)c1ccccc1)=C1C=C(C)OC(C)=C1	inconclusive: 90%
Brc1ccc(CSc2ccc3nnc(-c4cccnc4)n3n2)cc1	inconclusive: 89%
CCOC(=O)N1CCN(C(=O)CSc2ccc3nnc(-c4cccnc4)n3n2)CC1	inactive: 96%
Cc1ccc(C(=O)N/N=C(/CC(=O)c2cccs2)C(F)(F)F)cc1	inconclusive: 91%
COc1ccc(C2CC(C(F)(F)F)n3nc(C(=O)Nc4c(C)n(C)n(-c5ccccc5)c4=O)c(Cl)c3N2)cc1 (centres undefined)	inactive: 96%
CCOC(=O)Cn1c(-c2ccccn2)nc2ccccc21	inconclusive: 95%
Cc1cc(=O)n2nc(N3CCCC(C(=O)N4CCN(c5ccccc5)CC4)C3)sc2n1 (centres undefined)	inconclusive: 106%
O=C(O)C1CCCCC1C(=O)NCc1ccc(Cl)c(Cl)c1 (centres undefined)	inconclusive: 91%
Cc1ccc(SCc2ccc(C(=O)Nc3ccccc3Br)cc2)cc1	inconclusive: 94%
O=C(CSc1nnc(-c2ccc(F)cc2)o1)NC1CCCCC1	inconclusive: 117%
CCn1ccnc1CN(C)Cc1cn[nH]c1-c1ccc(OC)c(F)c1	inactive: 99%
CC(=O)N1CCN(CC(=O)Nc2sccc2C#N)CC1	inconclusive: 91%
